The shares of active, inactive and inconclusive entries below differ from those in the screen. A potency beside an inconclusive call is a rough fit, not a confirmed value. Active and inactive are the calls of the source. Calls follow the shape of the dose curve; as a rule, active = well fitted inhibition curve with a large enough effect; inconclusive = small, poorly fitted or top-dose-only effect, or effect the other way, or another doubt; inactive = no such curve, though single readings can be large or run the other way.
Experiment: Confirmation Concentration-Response Assay for lipid storage modulators; also: nearly all actives have a fitted effect of over 80% in size;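 as to activity change, negative = inhibition: -100% = full block of lipid deposition by 20 µM Triacsin C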
Conditions: Drosophila S3 cells, lipid droplet BODIPY/CellTracker ratio, 18-24 h; activity change, negative = inhibition: at 46.1 µM (top of the series)
In short: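 Cells at 5,000/well received compound as a titration plus oleic acid (added as 400 uM solution) and were incubated 18–24 h at 24 °C. BODIPY 493/503 lipid signal and CellTracker Red cell count were read by 488-nm laser-scanning cytometry. Activity was normalised to 20 uM Triacsin C.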
Potency is read from the fitted curve at half-maximal effect; tags tell the direction and shape of the fitted curve.

Compound	Potency	activity change, negative = inhibition
COc1ccc(CCNC(=O)c2cc(-c3ccc4c(c3)OCO4)on2)cc1OC	inconclusive: 0.0028 µM [activator, full curve, poor fit]	
Cc1ccc(SCC(=O)Nc2cccc(-c3nnc(-c4ccco4)o3)c2)cc1	inconclusive: 3.15 µM [activator, full curve]	
CCNC(=O)Nc1ccc(-n2nc(C)c(C(=O)OCC)c2C)nc1	inconclusive: 4.99 µM [activator, partial curve]	
COc1ccc(C(=O)Nc2oc(-c3ccccc3)c(-c3ccccc3)c2C#N)cc1OC	inconclusive: 2.81 µM [activator, full curve]	
CCOc1ccc(CCNC(=O)c2cnc(C)cn2)cc1OCC	inconclusive: 14.1 µM [activator, partial curve]	
O=S(=O)(c1ccc(Cl)cc1)c1nc(-c2ccccc2F)oc1NCCCN1CCOCC1	inconclusive: 2.81 µM [activator, partial curve]	
Cc1nc2c(sc3nc4c(cc32)COC(C)(C)C4)c(=O)n1Cc1ccccc1	inconclusive: 1.12 µM [activator, full curve]	
CCOC(=O)N1CCC(n2c(SCC(=O)NCc3ccco3)nc3ccsc3c2=O)CC1	inconclusive: 0.223 µM [activator, full curve]	
CCOc1ccc(/C=N/OC(C)C(=O)NCc2ccc3c(c2)OCO3)cc1 (stereo not given)	inconclusive: 3.97 µM [activator, full curve]	
CCOc1ccc(CCNC(=O)Cn2cccc2C(=O)c2ccccc2C)cc1OCC	active: 4.99 µM	
Cc1cc(NC(=O)c2cccc(F)c2)ncc1NC(=O)c1ccco1		inconclusive: 98% [activator]
Cc1cc(NC(=O)CSc2cn(CCNC(=O)c3ccc(Cl)cc3)c3ccccc23)no1	inconclusive: 1.58 µM [activator, full curve, poor fit]	
COC(=O)c1[nH]c2c(c1C)C(=O)CC(c1cccs1)C2 (stereo not given)	inconclusive: 0.445 µM [activator, full curve]	
Cc1cccc(NC(=O)CNC(=O)C23CC4CC(CC(Cl)(C4)C2)C3)n1	active: 3.15 µM	
CCOC(=O)C1(Cc2ccc(Cl)cc2)CCN(C(C)Cc2ccc(O)c(OC)c2)CC1 (stereo not given)	active: 11.2 µM	
O=C1CN(C(=O)COC(=O)c2oc3ccccc3c2COc2ccccc2)c2ccccc2N1	inconclusive: 1.25 µM [activator, full curve]	
COC(=O)c1ccccc1NC(=O)NN1CCN(C)CC1		inconclusive: 203% [activator]
COc1ccc(CCC(=O)NCCc2ccc(OC)c(OC)c2)cc1	inconclusive: 11.2 µM [activator, partial curve, poor fit]	
COC(=O)Cc1ccc(NC(=O)c2ccc3c(c2)C(=O)N(CC2CCCO2)C3=O)cc1 (stereo not given)	inconclusive: 35.3 µM [falling, single point]	
Cc1cc(C)nc(-n2nc(C)c(Br)c2Nc2ccc(Br)cc2)n1	inconclusive: 0.177 µM [activator, full curve]	
COc1ccc(CCNC(=O)c2cc(CC(C)C)on2)cc1OC	inconclusive: 6.28 µM [activator, partial curve, poor fit]	
COc1ccc(-c2noc(CN(C)S(=O)(=O)c3ccc(Cl)cc3)n2)cc1OC		inconclusive: 395% [activator]
CC(=O)c1cc(-c2ccccc2)n(CC(=O)N2CCC(C)CC2)c1C	active: 1.58 µM	
COc1ccc(CCNC(=O)CCC(=O)c2cccs2)cc1OC	inactive	
O=C(CSc1nccn1-c1ccc(Cl)cc1)NCc1ccc2c(c1)OCO2	inconclusive: 15.8 µM [activator, partial curve, poor fit]	
CSCCC(NC(=O)c1ccccc1)C(=O)NCCc1ccc2c(c1)OCCO2 (stereo not given)		inconclusive: 38.7% [activator]
Cc1ccccc1C(=O)NC(=S)Nc1ccc(S(=O)(=O)N(C)c2ccccc2)cc1	inconclusive: 3.97 µM [activator, full curve]	
c1ccc(-c2ccc(OCCOCCn3cncn3)cc2)cc1	inconclusive: 3.53 µM [activator, partial curve]	
Cc1ccc(C)c(NC(=O)c2nc(-c3ccccc3)n(-c3ccccc3)n2)c1	inconclusive: 0.125 µM [activator, full curve]	
O=S(=O)(NC1CC1)c1ccc(S(=O)(=O)N2CCCC(c3nc(-c4cccnc4)no3)C2)cc1 (stereo not given)	inconclusive: 5.6 µM [activator, full curve]	

Source: PubChem BioAssay AID1569 (National Center for Advancing Translational Sciences (NCATS), 2009)
